Source: PubChem BioAssay AID504832 (National Center for Advancing Translational Sciences (NCATS), 2011)
In all, about 310,000 compounds went through this assay and about 18,000 (5.8%) were called active. The inconclusive results got no clear call from the source; some entries with a clear call stand among them for comparison. Calls follow the shape of the dose curve; as a rule, active = well fitted inhibition curve with a large enough effect; inconclusive = small, poorly fitted or top-dose-only effect, or another doubt; inactive = no such curve, though single readings can be large or run the other way. Potencies of inconclusive entries are left out as doubtful fits.

Assay: Primary qHTS for delayed death inhibitors of the malarial parasite plastid, 48 hour incubation
Settings: P. falciparum luciferase growth in erythrocytes; series mostly up to 28.7 µM; activity change, negative = inhibition: at the top concentration
Outline: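 Luciferase-expressing parasites in RBCs, 2% Hct / 0.1% parasitemia final; RPMI 1640 + 0.5% Albumax; 37 C, 5% CO2, one generation; luminescence read-out, lower signal = inhibition.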
% is scaled to controls: 0 for no effect and ±100 for the full control effect; potency is read from the fitted curve at half-maximal effect; tags tell the direction and shape of the fitted curve.

Compound	activity change, negative = inhibition	Potency
COc1cc(/C=N/NC(=O)NC2CCCCC2)ccc1O	inactive: 2.81%	–
NC(=O)c1nsc(C(=O)N(Cc2ccccc2F)C(C(=O)NCC2CCCO2)c2ccc(F)cc2)c1N (centres undefined)	–	inconclusive [inhibitor, partial curve, poor fit]
O=C(Nc1ccccc1)O/N=C/c1ccc(F)cc1	inactive: 138%	–
O=C1C2CCCN2C(=S)N1c1cc(Cl)ccc1Cl (centres undefined)	–	inconclusive [inhibitor, single point]
c1ccc(-c2ccccc2OCCOCCN2CCOCC2)cc1	–	inconclusive [inhibitor, full curve, poor fit]
CC(CNC(=O)c1ccc(-c2ccccc2)cc1)CN(C)C (centres undefined)	inactive: -11.9%	–
O=C(C1CN(S(=O)(=O)c2ccccc2)CCN1S(=O)(=O)c1ccccc1)N1CCCCCC1 (centres undefined)	–	inconclusive [inhibitor, single point]
COc1ccc([N+](=O)[O-])c(S(=O)(=O)c2ccccc2)n1	inactive: -7.65%	–
Cc1cccc(C)c1-n1c(SCC(=O)N2CC(=O)Nc3ccccc32)nc2ccccc2c1=O	–	active: 13.1 µM
CCN(CC)CCOC(=O)c1ccc(N/C=C(/C#N)c2nc(-c3ccc(OC)c(OC)c3)cs2)cc1	–	inconclusive [inhibitor, full curve]
CC(=O)c1ccc(N(CC(=O)NC2CCCCC2)C(=O)c2csnn2)cc1	inactive: 12.1%	–
COc1ccc(C(C(=O)NC(C)C)N(C(=O)CCC(=O)Nc2nccs2)c2ccccc2F)cc1 (centres undefined)	–	inconclusive [inhibitor, partial curve, poor fit]
COc1ccc(-c2c([C@H]3[C@H]4C=CC[C@@H](C)[C@@H]4C(=O)N3Cc3ccccc3)ccc3ccccc23)cc1OC	–	active: 2.33 µM
CCCc1ccc(C(=O)COC(=O)CN2C(=O)NC3(CCCCC3C)C2=O)cc1 (centres undefined)	inactive: -24.2%	–
Cc1ccc(NC(=O)c2ccc(S(=O)(=O)N3CCCCCC3)cc2)nc1	–	inconclusive [inhibitor, single point]
Cc1nn(-c2nnc(NCc3ccccc3)nn2)c(C)c1Br	–	active: 0.586 µM
CCN(CC)CCSc1nc2ccccc2c(=S)n1-c1ccccc1	–	inconclusive [inhibitor, single point]
CCNC(=O)NC(=O)C(C)Sc1nc2ccccc2c(=O)n1-c1cccnc1 (centres undefined)	–	active: 1.04 µM
C/C(=N\NC(=O)CN1CCN(Cc2ccc(C)cc2)CC1)c1ccncc1	inactive: -0.896%	–
O=C(Nc1ccccc1N1CCOCC1)c1ccc(N2CCCC2=O)cc1	–	inconclusive [inhibitor, partial curve]
CCCCOc1ccc(C(=O)NCC(=O)N2CC(C)OC(C)C2)cc1 (centres undefined)	–	inconclusive [inhibitor, single point]
Cc1cc(OCC(=O)N(C)c2c(N)n(Cc3ccccc3)c(=O)[nH]c2=O)c(C(C)C)cc1Cl	inactive: -4.06%	–

Compound	activity change, negative = inhibition	Potency
O=c1[nH]c(C2CCN(S(=O)(=O)c3cccc(C(F)(F)F)c3)CC2)nc2c1nnn2Cc1cccc(F)c1	–	active: 7.38 µM
CC1(C)Cc2c(sc3ncnc(NNC(=S)NCc4ccccc4)c23)CO1	inactive: -19.2%	–
COc1ccc(CC(=O)N[C@@H](C)C(=O)N2CCC3(CC2)NCCc2[nH]cnc23)cc1	inactive: 13%	–
CCOC(=O)c1sc(NC(=O)CCN2C(=O)c3cccc([N+](=O)[O-])c3C2=O)c(C(=O)OCC)c1C	inactive: 11.6%	–
CC(C)(C)NC(=O)CSc1nnc(-c2c[nH]c3ccccc23)o1	–	inconclusive [inhibitor, full curve]
Cc1cc(C)c2c(CN3CCN(CCO)CC3)cc(=O)oc2c1	–	inconclusive [inhibitor, partial curve, poor fit]
CCCNC(=O)c1c(N)n(-c2cc(OC)cc(OC)c2)c2nc3ccccc3nc12	–	inconclusive [inhibitor, single point]
CCN1CCCC1CNCC(O)COc1ccc(C(C)(C)C)cc1C (centres undefined)	–	active: 10.4 µM
COc1cccc(-n2c(SCC(=O)NC3CCCC3)nnc2-c2ccco2)c1	–	active: 2.08 µM
COc1ccc(C(CNC(=O)COc2ccccc2C)N2CCCCC2)cc1 (centres undefined)	–	inconclusive [inhibitor, partial curve, poor fit]
CSCCC(NS(=O)(=O)c1ccc(C)cc1)C(=O)NCC(C)(C)N1CCOCC1 (centres undefined)	–	inconclusive [inhibitor, single point]
CCOC(=O)N1CCN(c2c(NCCN(C)Cc3ccccc3)c(=O)c2=O)CC1	–	inconclusive [inhibitor, partial curve]
CCOC(=O)C1CCN(S(=O)(=O)c2cn(C)c(=O)n(C)c2=O)CC1	inactive: -0.105%	–
COc1ccc(S(=O)(=O)N2CCOC2CNC(=O)C(=O)NCc2cccnc2)cc1C (centres undefined)	–	inconclusive [inhibitor, partial curve]
CCOC(=O)c1sc(NC(=S)NC(=O)C2CC2)cc1C	–	inconclusive [inhibitor, partial curve]
CN(C(=O)COC(=O)CCc1c[nH]c2ccccc12)c1ccccc1	–	inconclusive [inhibitor, partial curve, poor fit]
C1=C(CCNc2ncnc3c2[nH]c2ccccc23)CCCC1	–	inconclusive [inhibitor, full curve, poor fit]
CC1CC(C)CN(C(=O)COc2ccc([N+](=O)[O-])cc2Cl)C1 (centres undefined)	–	inconclusive [inhibitor, partial curve, poor fit]
Cc1ccccc1-n1c(=O)c2c(n3cnnc13)-c1ccccc1CC21CCCCC1	–	inconclusive [inhibitor, partial curve]
N/C(=N/O)c1nc(N2CCCC2)nc(N(c2ccccc2)c2ccccc2)n1	–	inconclusive [inhibitor, single point]
Cc1cccc(Cn2cc(SCC(=O)Nc3nccs3)c3ccccc32)c1	–	inconclusive [inhibitor, single point]
CC(C)CC(c1nnnn1Cc1ccccc1)N1CCC(C(N)=O)CC1 (centres undefined)	–	inconclusive [inhibitor, partial curve, poor fit]
